Data as given in the antibiotic and cytotoxicity screens of Wong et al. (2023).
The other results are listed elsewhere or left out.

Columns and labels:
[1] = test system: HSkMC (human skeletal muscle cells); test: cytotoxicity call (relative viability < 0.9); details: 10 µM
[2] = test system: HepG2; test: cytotoxicity call (relative viability < 0.9); details: 10 µM
[3] = test system: S. aureus RN4220; test: growth inhibition call (relative growth <= 0.2); details: 50 µM

Compound	cytotoxicity call [1]	cytotoxicity call [2]	growth inhibition call [3]
CC(C)NC(=O)Nc1ccc2c(c1)C(=O)N([C@@H](C)CO)C[C@H](C)[C@@H](CN(C)Cc1ccc(C(F)(F)F)cc1)OCCCC[C@H](C)O2	inactive	active	inactive
Cc1noc(C)c1NC(=O)Nc1ccc2c(c1)CC(=O)N([C@@H](C)CO)C[C@@H](C)[C@H](CN(C)Cc1ccc(-c3ccccc3)cc1)O2	inactive	inactive	inactive
COc1ccc(CN(C)C[C@@H]2Oc3ccc(NC(=O)Nc4ccc(C(F)(F)F)cc4)cc3CC(=O)N([C@H](C)CO)C[C@@H]2C)cc1	active	active	inactive
C[C@@H]1CN([C@H](C)CO)C(=O)c2c(c3ccccc3n2C)-c2ccccc2CO[C@H]1CN(C)S(=O)(=O)c1ccc(C(F)(F)F)cc1	active	inactive	inactive
C[C@@H]1CCCCO[C@@H](CN(C)Cc2ccncc2)[C@H](C)CN([C@@H](C)CO)C(=O)c2cc(NC(=O)Nc3ccc(C(F)(F)F)cc3)ccc2O1	inactive	inactive	inactive
C[C@@H](O)C#Cc1cnc2c(c1)C(=O)N([C@@H](C)CO)C[C@H](C)[C@@H](CN(C)C(=O)Nc1ccc(C(F)(F)F)cc1)O2	inactive	inactive	inactive
O=C(C[C@@H]1CC[C@@H](NC(=O)Nc2ccc3c(c2)OCO3)[C@@H](CO)O1)NCCCN1CCOCC1	inactive	inactive	inactive
C[C@H](CO)N1C[C@H](C)[C@H](CN(C)C(=O)Nc2cccc3ccccc23)OCCCC[C@H](C)Oc2ccc(NC(=O)C3CCCCC3)cc2C1=O	inactive	active	inactive
CC(C)N(CCOc1c(Br)cc(/C=C/C(=O)NCCCOc2c(Br)cc(CCN(C)C)cc2Br)cc1Br)C(C)C	active	active	inactive
COc1cc(OC)cc(C(=O)OCCN2CCN(CCOC(=O)c3cc(OC)cc(OC)c3)CC2)c1	inactive	inactive	inactive
C[C@@H]1CCCCO[C@@H](CN(C)C(=O)Nc2ccc(C(F)(F)F)cc2)[C@@H](C)CN([C@H](C)CO)C(=O)c2cc(NC(=O)CCCCCC(=O)Nc3ccccc3N)ccc2O1	inactive	inactive	inactive
COc1ccc2c3c(n(c2c1)C)[C@H](CO)N(C[C@]13CN(C1)C(=O)C)C(=O)CN1CCOCC1	inactive	inactive	inactive
C[C@@H]1CCCCO[C@@H](CN(C)C(=O)Nc2ccc3c(c2)OCO3)[C@H](C)CN([C@@H](C)CO)C(=O)c2cc(NC(=O)c3ccncc3)ccc2O1	inactive	inactive	inactive
C[C@@H]1CN([C@@H](C)CO)S(=O)(=O)c2ccc(C#CC3(O)CCCC3)cc2O[C@H]1CN(C)C(=O)Nc1cccc(F)c1	inactive	inactive	inactive
Cc1noc(C)c1NC(=O)N(C)C[C@H]1Oc2ccc(NS(C)(=O)=O)cc2CC(=O)N([C@H](C)CO)C[C@H]1C	inactive	inactive	inactive
Cc1noc(C)c1S(=O)(=O)N(C)C[C@H]1OCCCC[C@@H](C)Oc2ccc(NC(=O)CCCCCC(=O)Nc3ccccc3N)cc2C(=O)N([C@@H](C)CO)C[C@@H]1C	inactive	inactive	inactive
COc1ccc(S(=O)(=O)Nc2cccc3c2O[C@H](CN(C)S(=O)(=O)c2ccc(C)cc2)[C@H](C)CN([C@H](C)CO)C3=O)cc1	inactive	inactive	inactive
CN1C(=O)c2cc(NC(=O)Nc3ccccc3F)ccc2OC[C@@H]2O[C@@H](CC(=O)NCc3ccc(-c4ccccc4)cc3)CC[C@H]21	inactive	inactive	inactive
Cc1ccc(S(=O)(=O)Nc2ccc3c(c2)C(=O)N([C@H](C)CO)C[C@@H](C)[C@H](CN(C)Cc2ccc4c(c2)OCO4)OCCCC[C@H](C)O3)cc1	inactive	active	inactive
C[C@H](CO)N1C[C@H](C)[C@@H](CN(C)S(=O)(=O)c2ccc(Cl)cc2)Oc2ccc(NC(=O)Nc3cccc4ccccc34)cc2CC1=O	inactive	inactive	inactive

Compound	cytotoxicity call [1]	cytotoxicity call [2]	growth inhibition call [3]
Cc1noc(C)c1NC(=O)N(C)C[C@H]1OCCCC[C@@H](C)Oc2ccc(NC(=O)c3ccccc3)cc2C(=O)N([C@@H](C)CO)C[C@@H]1C	inactive	inactive	inactive
C[C@@H]1CN([C@@H](C)CO)C(=O)c2cccc(NC(=O)C3CC3)c2O[C@H]1CN(C)S(=O)(=O)c1ccc(F)cc1	inactive	inactive	inactive
CCCNC(=O)N1C[C@@H](O)COC[C@@H]2O[C@@H](CC(=O)NCCCN3CCOCC3)CC[C@H]21	inactive	inactive	inactive
CC(C(=O)O)c1ccc2c(c1)[nH]c1ccc(Cl)cc12 (stereo not given)	inactive	inactive	inactive
C[C@@H]1CN([C@H](C)CO)C(=O)c2cccc(NC(=O)c3ccncc3)c2O[C@H]1CN(C)Cc1ccc(Oc2ccccc2)cc1	inactive	inactive	inactive
C[C@@H]1CCCCO[C@@H](CN(C)S(=O)(=O)c2ccc(Cl)cc2)[C@H](C)CN([C@@H](C)CO)C(=O)c2cc(NC(=O)C3CCCCC3)ccc2O1	inactive	inactive	inactive
Cc1ccc(S(=O)(=O)N(C)C[C@@H]2Oc3cc(C#Cc4ccncc4)ccc3S(=O)(=O)N([C@H](C)CO)C[C@H]2C)cc1	inactive	active	inactive
CCCN(C)C[C@@H]1OCCCC[C@@H](C)Oc2ccc(NC(=O)Nc3c(C)noc3C)cc2C(=O)N([C@H](C)CO)C[C@@H]1C	inactive	inactive	inactive
COc1ccc(NC(=O)Nc2cccc3c2O[C@@H](CN(C)S(C)(=O)=O)[C@@H](C)CN([C@H](C)CO)C3=O)cc1	inactive	inactive	inactive
Cc1noc(C)c1S(=O)(=O)N(C)C[C@H]1Oc2ccc(NC(=O)CCN3CCOCC3)cc2CC(=O)N([C@@H](C)CO)C[C@H]1C	inactive	inactive	inactive
NC1=NCCCC1	inactive	inactive	inactive
C[C@@H]1CN([C@@H](C)CO)C(=O)c2cccc(NC(=O)c3ccncc3)c2O[C@@H]1CN(C)S(=O)(=O)c1ccc(F)cc1	inactive	inactive	inactive
Cc1noc(C)c1NC(=O)Nc1ccc2c(c1)C(=O)N([C@@H](C)CO)C[C@H](C)[C@@H](CN(C)S(=O)(=O)c1ccccc1)O2	inactive	inactive	inactive
C[C@@H]1CN([C@H](C)CO)C(=O)c2c(c3ccccc3n2C)-c2ccccc2CO[C@H]1CN(C)C(=O)Nc1ccc(F)cc1	inactive	inactive	inactive
Nc1nc(=O)c2c([nH]1)NC[C@H](CNc1ccc(C(=O)N[C@@H](CCC(=O)O)C(=O)O)cc1)N2C=O	inactive	inactive	inactive
CC(C)NC(=O)N(C)C[C@H]1OCCCC[C@H](C)Oc2ccc(NC(=O)Nc3ccc(F)cc3)cc2C(=O)N([C@@H](C)CO)C[C@H]1C	inactive	inactive	inactive
C[C@@H]1CN([C@H](C)CO)C(=O)c2cc(NC(=O)Nc3ccc(F)cc3)ccc2O[C@@H](C)CCCCO[C@@H]1CN(C)S(=O)(=O)c1cccs1	inactive	inactive	inactive
CN(C)CCCCNC(=O)[C@H]1C[C@H]2C(=O)N3CCC[C@H]3C(=O)N2[C@H]1c1cccc(OCCO)c1	inactive	inactive	inactive
C[C@H]1CCCCO[C@H](CN(C)Cc2ccc(C(=O)O)cc2)[C@@H](C)CN([C@@H](C)CO)C(=O)c2cc(NC(=O)Nc3ccccc3)ccc2O1	inactive	inactive	inactive
C[C@@H]1CN([C@H](C)CO)C(=O)c2cc(NC(=O)Nc3cccc4ccccc34)ccc2O[C@@H]1CN(C)C(=O)Nc1ccccc1	inactive	inactive	inactive
